# Experimental data taken from PubChem BioAssay AID360 (National Center for Advancing Translational Sciences (NCATS), 2006).
# Among all 48,000 compounds or so, about 550 (1.1%) were called active. Another 4% or so got no clear call; they are omitted. Rule as the data show it: active = potency below about 15 µM; inconclusive = mostly about 16 µM to 33 µM; inactive = weaker than that. Some of the results follow.
# Target: Lysosomal acid glucosylceramidase (Homo sapiens) (UniProt P04062)
# Test: Glucocerebrosidase;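 also: the screen sought inhibitors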
# Conditions: purified enzyme, resorufin glucoside fluorescence (screen aimed at inhibitors), 20 min
# How it was run: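 Compounds titrated against 0.2 nM normal enzyme, 30 uM resorufin beta-D-glucopyranoside substrate, citrate/phosphate buffer with taurocholate and tween-20, pH 5.9. Reaction ran 20 min at room temperature; fluorescence (Ex 548/Em 600) gave AC50.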
# Potency is read from the fitted curve at half-maximal effect.
# Sequence of UniProt P04062 (P04062 whole entry, looked up): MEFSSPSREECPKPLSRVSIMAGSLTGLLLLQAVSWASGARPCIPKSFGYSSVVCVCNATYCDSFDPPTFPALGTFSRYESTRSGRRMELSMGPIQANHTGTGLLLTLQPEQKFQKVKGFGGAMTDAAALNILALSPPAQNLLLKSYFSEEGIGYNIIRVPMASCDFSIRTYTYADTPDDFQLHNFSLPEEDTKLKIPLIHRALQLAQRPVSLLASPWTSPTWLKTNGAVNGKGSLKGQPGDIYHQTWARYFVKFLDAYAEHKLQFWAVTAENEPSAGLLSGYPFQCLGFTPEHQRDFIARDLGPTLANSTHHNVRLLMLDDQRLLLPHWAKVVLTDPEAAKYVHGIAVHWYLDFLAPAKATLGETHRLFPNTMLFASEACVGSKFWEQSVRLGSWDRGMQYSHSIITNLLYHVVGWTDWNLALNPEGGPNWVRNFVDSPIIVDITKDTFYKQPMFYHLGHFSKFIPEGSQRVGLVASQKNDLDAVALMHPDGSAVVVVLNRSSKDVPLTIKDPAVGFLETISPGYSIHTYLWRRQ
row,Compound,Potency
1,COc1cc(OC)cc(C(=O)N2CCC(n3c(C)nc4cc(F)ccc43)CC2)c1,inactive: > 76.9 µM
2,C=CCn1c(COC)nnc1SCC(=O)c1ccc(F)cc1,inactive: > 76.9 µM
3,Cc1cc2c(c(=O)n1Cc1ccc3c(c1)OCO3)C(c1cccnc1)C(C#N)=C(N)O2 (centres undefined),inactive: > 76.9 µM
4,Cc1cccc(CS(=O)(=O)Cc2ccc(C(=O)NCCCN3CCOCC3)o2)c1,inactive: > 76.9 µM
5,CC1(C)c2ccccc2N2CCC(=O)NC21/C=C/c1ccco1 (centres undefined),inactive: > 76.9 µM
6,CC1CCN(C(=O)CCCOc2cc(=O)n(C)c3ccccc23)CC1,inactive: > 76.9 µM
7,COc1ccc(OC)c(S(=O)(=O)N2CCCCCC2)c1,inactive: > 76.9 µM
8,NC(=O)C1CCCNC1 (centres undefined),inactive: > 76.9 µM
9,NC(=O)C1CCN(c2nc(C3CC3)nc3c2nnn3Cc2ccccc2)CC1,inactive: > 76.9 µM
10,COCCn1nnnc1C(c1ccc(Cl)cc1)N1CCSCC1 (centres undefined),inactive: > 76.9 µM
11,Cc1cc(N2CCN(c3ccccc3)CC2)n2nnnc2n1,inactive: > 76.9 µM
12,CC(OC(=O)CNC(=O)c1ccc2c(c1)OCO2)C(=O)NCCC1=CCCCC1 (centres undefined),inactive: > 76.9 µM
13,CCCc1[nH]nc2c1C(c1ccc(Br)s1)C(C#N)=C(N)O2 (centres undefined),inactive: > 76.9 µM
14,O=C1CC(c2ccco2)Cc2nc(NCC3CCCO3)ncc21 (centres undefined),inactive: > 76.9 µM
15,Cc1nc2ccccc2n1CC(=O)NCCN1CCCC1,inactive: > 76.9 µM
16,CC(=O)c1ccc(NC(=O)C2CCCNC2=O)cc1 (centres undefined),inactive: > 76.9 µM
17,COc1cc(CNc2ncn[nH]2)cc(Br)c1OC,inactive: > 76.9 µM
18,CCCCNC(=O)Nc1ccccc1C(=O)NCc1ccco1,inactive: > 76.9 µM
19,CCCCCn1c(=O)[nH]c2cc(C(=O)NCCCN(CC)CC)ccc2c1=O,inactive: > 76.9 µM
20,O=C1c2ccccc2C(=O)N1Cc1nc(-c2cccnc2)no1,inactive: > 76.9 µM

row,Compound,Potency
1,CCOC(=O)C1CCN(C(C(=O)NC2CCCCC2)c2ccc(OC)cc2)CC1 (centres undefined),inactive: > 76.9 µM
2,CC(=O)N1CCN(c2ccc(NCc3ccc(C)cc3)cc2)CC1,active: 11.6 µM
3,O=C(Cn1ccsc1=NC(=O)c1ccco1)c1ccccc1,inactive: > 76.9 µM
4,CCOC(=O)C1CCCN(C(=O)CSc2nccn2C)C1 (centres undefined),inactive: > 76.9 µM
5,CCc1c(C)nc(N)n2c(SCC(=O)N3CCN(c4ccccc4OC)CC3)nnc12,inactive: > 76.9 µM
6,CCOC(=O)Cc1csc(NC(=O)c2c(-c3c(F)cccc3Cl)noc2C)n1,inactive: > 76.9 µM
7,COc1cccc(CC(C(=O)Nc2cc(C)ccc2C)c2nn[nH]n2)c1OC (centres undefined),inactive: > 76.9 µM
8,CCN(CC)CCN1C(=O)c2oc3ccccc3c(=O)c2C1c1cccc(Br)c1 (centres undefined),inactive: > 76.9 µM
9,Cc1ccc(Cn2nnc3c(=O)n(CC(=O)N4CCCCC4)cnc32)cc1,inactive: > 76.9 µM
10,CCOC(=O)c1sc2cccc(F)c2c1N,inactive: > 76.9 µM
11,Cc1cc(C)cc(N2C(=O)C3C4C=CC(C4)C3C2=O)c1 (centres undefined),inactive: > 76.9 µM
12,COc1ccccc1/C=C/CN1CC(C)OC(C)C1 (centres undefined),inactive: > 76.9 µM
13,Cc1cc(C2C(=O)CC(=O)CC2c2ccccc2)on1 (centres undefined),inactive: > 76.9 µM
14,Cc1c(NC(=O)c2cc(-c3ccc4c(c3)OCO4)on2)c(=O)n(-c2ccccc2)n1C,inactive: > 76.9 µM
15,Cc1ccc(-c2nnc3sc(C4COc5ccccc5O4)nn23)cc1 (centres undefined),inactive: > 76.9 µM
16,CCOc1ccccc1N(C(=O)CNC(=O)c1ccco1)C(C(=O)NC(C)(C)C)c1ccncc1 (centres undefined),inactive: > 76.9 µM
17,O=C1C2CCCN2C(c2cccs2)N1c1ccc(Cl)cc1 (centres undefined),inactive: > 76.9 µM
18,CCOCC(=O)Nc1ccc(S(=O)(=O)N2CCOCC2)cc1,inactive: > 76.9 µM
19,Cc1cccc(NC(=O)c2ccc(NS(=O)(=O)c3c(C)noc3C)cc2)c1,active: 11.7 µM
20,O=C(Nc1ccccc1F)NC1CCN(Cc2nnnn2Cc2ccc(F)cc2)CC1,inactive: > 76.9 µM

row,Compound,Potency
1,Cc1ccc(S(=O)(=O)N2CCSC2c2ccco2)cc1 (centres undefined),inactive: > 76.9 µM
2,CCOC(=O)N1CCN(C(=O)c2cc3c(=O)[nH]c4ccccc4c3s2)CC1,inactive: > 76.9 µM
3,Cc1cccc(C)c1NC(=O)CCCSc1nnc(-c2ccco2)o1,inactive: > 76.9 µM
4,CCc1nc(N2CCCC(C)C2)c2oc3ccccc3c2n1 (centres undefined),inactive: > 76.9 µM
5,Clc1ccc(-c2nnc3sc(-c4ccco4)nn23)c(Cl)c1,inactive: > 76.9 µM
6,O=C(CCS(=O)(=O)Cc1ccccc1)NC1CCCCC1,inactive: > 76.9 µM
7,COc1ccc(NC(=O)CN2CCN(c3ccc(F)cc3)CC2)cc1Cl,inactive: > 76.9 µM
8,CC(=O)c1c(C)oc2ccc(NS(=O)(=O)c3ccc(O)c(C(=O)O)c3)cc12,inactive: > 76.9 µM
9,Cc1cc(=O)oc2c(CN(C)Cc3ccccc3)c(O)ccc12,inactive: > 76.9 µM
10,CCOC(=O)Cc1csc(NC(=O)CSc2nnc(C)n2C)n1,inactive: > 76.9 µM
11,COCCn1nnnc1C(c1ccccc1)N1CCN(Cc2ccc3c(c2)OCO3)CC1 (centres undefined),inactive: > 76.9 µM
12,CCCCNc1cc(C)nc(NCc2ccccc2)n1,active: 6.26 µM
13,CCC1(c2ccc(F)cc2)NC(=O)N(CC(=O)c2ccc[nH]2)C1=O (centres undefined),inactive: > 76.9 µM
14,O=C(Nc1ccc2c(c1)OCO2)c1cnn2c1NC(c1ccco1)CC2C(F)(F)F (centres undefined),inactive: > 76.9 µM
15,COc1ccc(CCNC(=O)C2CC(=O)N(C3CCCC3)C2)cc1OC (centres undefined),inactive: > 76.9 µM
16,NC(=O)CSc1nnc(C2CC2)n1Cc1ccccc1,inactive: > 76.9 µM
17,COc1ccc(-c2cc(=O)oc3cc(OCc4nn[nH]n4)ccc23)cc1,inactive: > 76.9 µM
18,O=C1CCCN1c1ccc(S(=O)(=O)Nc2ccc3c(c2)OCCO3)cc1,inactive: > 76.9 µM
19,CCCc1cc(=O)n2[nH]c(NCc3ccccc3F)nc2n1,inactive: > 76.9 µM
